Reference: ChEMBL document CHEMBL4888484, “Replenishing the malaria drug discovery pipeline: Screening and hit evaluation of the MMV Hit Generation Library 1 (HGL1) against asexual blood stage Plasmodium falciparum ,using a nano luciferase reporter read-out” (2022)
Screen size: about 150,000 compounds; about 540 (0.36%) showed an effect of 50% or more. The list shows a part of the results.

Test system: Plasmodium falciparum
Assay: Primary screen in NF54 nanoGlo assay, in single point, at 2uM, 72h; a lower Z score goes with more inhibition
Format: functional, Erythrocyte
Conditions: timepoint 72 hour

In order of falling “% Inhibition” value:
1. Cc1nn(Cc2ccc(Cl)cc2)c(=O)n1-c1ccc(OCc2ccccc2)cc1  41%
2. Cc1ccc(OCC(=O)N(Cc2cccc3ccccc23)c2ccccn2)cc1  18%
3. CO[C@H]1COCC[C@@H]1NC(=O)c1cccc(C)n1  5%
4. CO[C@@H](C)c1nc(C)c(C(=O)NCCC(F)(F)F)s1  5%
5. Cc1csc(C(NC(=O)N2CCCC2CN2CCCC2)C2CC2)n1 (stereo unspecified)  5%
6. CC(C)NC(=O)CS(=O)(=O)Cc1cccs1  5%
7. CC(C)S(=O)(=O)Cc1ccc(N[C@H]2CCOC2=O)cc1  5%
8. CCc1csc([C@H]2CCCN(CCC(=O)O)C2)n1  3%
9. O=C(N[C@@H]1COCC[C@@H]1OCC1CC1)c1nc2ccccc2[nH]1  3%
10. CCc1nc([C@@H]2C[C@@H](O)CN2C(=O)C(F)=C(C)C2CC2)n[nH]1  2%
11. CC(NCCC(C)(C)C)C(C)N1CCOCC1 (stereo unspecified)  1%
12. O=C(O)[C@H]1CC(=O)N(CCc2c[nH]c3ccc(Cl)cc23)C1  0%
13. Cc1ccc(Cc2nc(N3CCCN(C(=O)Nc4ccc(Cl)c(Cl)c4)CC3)c3c(-c4cccnc4)noc3n2)cc1  0%
14. COC[C@H](C)NCc1cc(F)ccc1F  0%
15. C[C@@H](c1nc(-c2cccs2)no1)N(C)CCn1cccn1  0%
16. COCCCNC(=O)Cn1nc2n(c1=O)CCN(Cc1ccccc1F)C2=O  -1%
17. CC(C)Oc1cccc(C(=O)NC2CC3CCC(C2)N3CC(=O)N(C)C)n1 (stereo unspecified)  -1%
18. COc1ccc(F)cc1CN1CCN(CC(=O)N[C@H]2CCCc3ccccc32)CC1  -2%
19. CN(CCN1CCCCC1)C(=O)c1cccn1C  -2%
20. O=C(Nc1ncc(C2CCNCC2)s1)[C@H]1CCc2cn[nH]c2C1  -2%
21. CC1CCN(C[C@@H](O)CNC(=O)C(C)(C)CC(=O)c2ccc(Cl)cc2)CC1  -4%
22. Cc1noc2ncnc(NCc3nnc4ccccn34)c12  -5%
23. Cc1ccc(S(=O)(=O)N(C)c2ccc3sc(C(=O)N4CCCC4)cc3c2)cc1  -6%
24. COc1cc(C(=O)N2CCC3(CCNC(=O)CC3)CC2)nc(OC)n1  -6%
25. CC(C)N(CCN(C)C)c1ccc(C(F)(F)F)nn1  -6%
26. O=C(N[C@@H](CO)C1CCCC1)c1ncoc1C1CC1  -7%
27. CCOc1ccc(-c2noc(CN3N=NC4C(=O)N(c5ccc(C)cc5)C(=O)C43)n2)cc1OC (stereo unspecified)  -7%
28. Cc1ccc([C@H]2c3cc(OCc4nc(C(=O)NCc5ccc(F)cc5)co4)ccc3CCN2C(=O)CC(C)C)cc1  -7%
29. C[C@H](NCc1ncnn1C)c1cccc(OC(F)F)c1  -7%
30. COc1cc(C(=O)NC[C@H]2CCCC[C@@H]2O)ncn1  -8%
31. Cc1cccnc1CC(=O)NCC1(N(C)C)CCCC1  -8%
32. Cc1cc(N(C)C)nc(CNS(=O)(=O)c2cccs2)n1  -8%
33. O=C(Cn1c(=O)n(Cc2ccccc2F)c(=O)c2sccc21)N[C@H]1CCc2ccccc21  -8%
34. O=C(O)c1cccc(OCCNC(=O)[C@H]2CC23CCCCC3)c1  -9%
35. CCCOc1ccc(-c2noc(C)n2)cc1OC  -9%
36. CN1CCC(N(CCc2ccccc2)Cc2cscn2)CC1  -10%
37. CCOCCC1(C(=O)Nc2cc(C)c(NC(C)=O)c(C)c2)CCCC1  -10%
38. COc1ccccc1CC(=O)NCCn1cccc1-c1nc(-c2ccccc2)no1  -10%
39. O=C(c1cc(C2CC2)on1)N1CC(S(=O)(=O)C2CCCCC2)C1  -10%
40. CN(Cc1n[nH]c(=O)n1Cc1ccc(Cl)cc1Cl)S(C)(=O)=O  -10%
41. O=c1cc(CN(Cc2cccnc2)Cc2ccco2)[nH]c2ccnn12  -10%
42. CNC(=O)C[C@H]1CCN(Cc2ccc3c(c2)OCCO3)C1  -11%
43. Cc1cc(-c2cccc(C(=O)N3CCC4(CCO4)CC3)c2)c(=O)[nH]c1C  -11%
44. O=C(COc1ccc2ccccc2c1)Nc1ccccn1  -11%
45. CC[C@@H]1Oc2ccc(NC(=O)c3ccc(Cl)cc3)cc2CN(Cc2ccc(F)cc2)C1=O  -11%
46. CCC#CCN1CCC2(CCC(=O)N(Cc3ccccc3)C2)CC1  -11%
47. CC(C)c1nc([C@@H]2CCCCCN2C(=O)c2ccc(C(N)=O)cn2)no1  -13%
48. COc1ccc(CNC(=O)C(=O)Nc2ccc(N3CCCS3(=O)=O)cc2)cc1  -14%
49. CC(C)(O)C#Cc1ccc(CN2CCC[C@@](CO)(CCc3ccccc3)C2)s1  -15%
50. C[C@@H](C(=O)N1CCC2(CCc3ccccc32)CC1)c1n[nH]c(=O)c2ccccc12  -15%
51. O=C(NCc1ccc(F)cc1F)c1ccc(-c2cccs2)nc1  -20%
52. COc1ccccc1[C@@H]1CC(c2ccccc2F)=NN1C(=O)CN(CCN1CCOCC1)C(=O)NC(C)(C)C  -24%
53. CO[C@H]1[C@@H]2CC[C@H]1CN(C(=O)NCc1c(Cl)cccc1Cl)C2  -24%

In order of rising Z score:
1. Cc1nn(Cc2ccc(Cl)cc2)c(=O)n1-c1ccc(OCc2ccccc2)cc1  -5.24
2. Cc1ccc(OCC(=O)N(Cc2cccc3ccccc23)c2ccccn2)cc1  -2.11
3. CO[C@@H](C)c1nc(C)c(C(=O)NCCC(F)(F)F)s1  -0.92
4. CO[C@H]1COCC[C@@H]1NC(=O)c1cccc(C)n1  -0.88
5. CC(C)S(=O)(=O)Cc1ccc(N[C@H]2CCOC2=O)cc1  -0.75
6. CC(C)NC(=O)CS(=O)(=O)Cc1cccs1  -0.7
7. O=C(N[C@@H]1COCC[C@@H]1OCC1CC1)c1nc2ccccc2[nH]1  -0.51
8. Cc1csc(C(NC(=O)N2CCCC2CN2CCCC2)C2CC2)n1 (stereo unspecified)  -0.45
9. CCc1nc([C@@H]2C[C@@H](O)CN2C(=O)C(F)=C(C)C2CC2)n[nH]1  -0.39
10. CCc1csc([C@H]2CCCN(CCC(=O)O)C2)n1  -0.36
11. CC(NCCC(C)(C)C)C(C)N1CCOCC1 (stereo unspecified)  -0.14
12. O=C(O)[C@H]1CC(=O)N(CCc2c[nH]c3ccc(Cl)cc23)C1  -0.01
13. C[C@@H](c1nc(-c2cccs2)no1)N(C)CCn1cccn1  0
14. Cc1ccc(Cc2nc(N3CCCN(C(=O)Nc4ccc(Cl)c(Cl)c4)CC3)c3c(-c4cccnc4)noc3n2)cc1  0.01
15. COC[C@H](C)NCc1cc(F)ccc1F  0.01
16. COCCCNC(=O)Cn1nc2n(c1=O)CCN(Cc1ccccc1F)C2=O  0.12
17. CC(C)Oc1cccc(C(=O)NC2CC3CCC(C2)N3CC(=O)N(C)C)n1 (stereo unspecified)  0.13
18. COc1ccc(F)cc1CN1CCN(CC(=O)N[C@H]2CCCc3ccccc32)CC1  0.28
19. CN(CCN1CCCCC1)C(=O)c1cccn1C  0.36
20. O=C(Nc1ncc(C2CCNCC2)s1)[C@H]1CCc2cn[nH]c2C1  0.36
21. CC1CCN(C[C@@H](O)CNC(=O)C(C)(C)CC(=O)c2ccc(Cl)cc2)CC1  0.41
22. Cc1noc2ncnc(NCc3nnc4ccccn34)c12  0.49
23. C[C@H](NCc1ncnn1C)c1cccc(OC(F)F)c1  0.65
24. CC(C)N(CCN(C)C)c1ccc(C(F)(F)F)nn1  0.75
25. COc1cc(C(=O)N2CCC3(CCNC(=O)CC3)CC2)nc(OC)n1  0.82
26. Cc1ccc(S(=O)(=O)N(C)c2ccc3sc(C(=O)N4CCCC4)cc3c2)cc1  0.85
27. CCOc1ccc(-c2noc(CN3N=NC4C(=O)N(c5ccc(C)cc5)C(=O)C43)n2)cc1OC (stereo unspecified)  0.91
28. Cc1cccnc1CC(=O)NCC1(N(C)C)CCCC1  0.91
29. O=C(N[C@@H](CO)C1CCCC1)c1ncoc1C1CC1  0.92
30. Cc1ccc([C@H]2c3cc(OCc4nc(C(=O)NCc5ccc(F)cc5)co4)ccc3CCN2C(=O)CC(C)C)cc1  0.97
31. O=C(O)c1cccc(OCCNC(=O)[C@H]2CC23CCCCC3)c1  0.97
32. O=C(Cn1c(=O)n(Cc2ccccc2F)c(=O)c2sccc21)N[C@H]1CCc2ccccc21  0.99
33. COc1cc(C(=O)NC[C@H]2CCCC[C@@H]2O)ncn1  1.08
34. CN(Cc1n[nH]c(=O)n1Cc1ccc(Cl)cc1Cl)S(C)(=O)=O  1.11
35. O=C(c1cc(C2CC2)on1)N1CC(S(=O)(=O)C2CCCCC2)C1  1.32
36. COc1ccccc1CC(=O)NCCn1cccc1-c1nc(-c2ccccc2)no1  1.33
37. CC(C)(O)C#Cc1ccc(CN2CCC[C@@](CO)(CCc3ccccc3)C2)s1  1.34
38. CN1CCC(N(CCc2ccccc2)Cc2cscn2)CC1  1.35
39. CCOCCC1(C(=O)Nc2cc(C)c(NC(C)=O)c(C)c2)CCCC1  1.38
40. CCCOc1ccc(-c2noc(C)n2)cc1OC  1.42
41. Cc1cc(N(C)C)nc(CNS(=O)(=O)c2cccs2)n1  1.46
42. C[C@@H](C(=O)N1CCC2(CCc3ccccc32)CC1)c1n[nH]c(=O)c2ccccc12  1.49
43. CNC(=O)C[C@H]1CCN(Cc2ccc3c(c2)OCCO3)C1  1.51
44. CC(C)c1nc([C@@H]2CCCCCN2C(=O)c2ccc(C(N)=O)cn2)no1  1.63
45. O=c1cc(CN(Cc2cccnc2)Cc2ccco2)[nH]c2ccnn12  1.69
46. O=C(COc1ccc2ccccc2c1)Nc1ccccn1  1.71
47. CC[C@@H]1Oc2ccc(NC(=O)c3ccc(Cl)cc3)cc2CN(Cc2ccc(F)cc2)C1=O  1.75
48. COc1ccc(CNC(=O)C(=O)Nc2ccc(N3CCCS3(=O)=O)cc2)cc1  1.82
49. CCC#CCN1CCC2(CCC(=O)N(Cc3ccccc3)C2)CC1  2.19
50. Cc1cc(-c2cccc(C(=O)N3CCC4(CCO4)CC3)c2)c(=O)[nH]c1C  2.25
51. COc1ccccc1[C@@H]1CC(c2ccccc2F)=NN1C(=O)CN(CCN1CCOCC1)C(=O)NC(C)(C)C  2.32
52. O=C(NCc1ccc(F)cc1F)c1ccc(-c2cccs2)nc1  3.73
53. CO[C@H]1[C@@H]2CC[C@H]1CN(C(=O)NCc1c(Cl)cccc1Cl)C2  4.19
